Changes are numbered by the printed parent chain; changes in the protein carry UniProt numbers. Some of the results follow.

The chains are these.
T1: RBFOX1 RRM RbFoxmut (Fox-RRM*) (Homo sapiens, UniProt Q9NWB1 109-208, R118D;E147R;N151S;E152T)
T1 sequence: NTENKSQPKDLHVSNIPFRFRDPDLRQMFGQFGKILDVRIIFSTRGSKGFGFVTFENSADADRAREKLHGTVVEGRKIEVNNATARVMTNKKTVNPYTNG

B1: GAGUGGA (DNA:RNA)
RNA: GGGAGACCGGAAUUCAGAUUGUCCGAGUGGAUUAAAUCCCGUCGUAGCCACCA
DNA 1: CAATCTGAATTCCGGTCTCCC
DNA 2: TGGTGGCTACGACGGGATT
B2: CGCCUAC (DNA:RNA)
RNA: GGGAGACCGGAAUUCAGAUUGUCCCGCCUACUUAAAUCCCGUCGUAGCCACCA
DNA 1: CAATCTGAATTCCGGTCTCCC
DNA 2: TGGTGGCTACGACGGGATT
B3: ACAAUAC (DNA:RNA)
RNA: B2 RNA with C25A, G26C, C27A, C28A
DNA 1: CAATCTGAATTCCGGTCTCCC
DNA 2: TGGTGGCTACGACGGGATT
B4: CUUCAGU (DNA:RNA)
RNA: B2 RNA with G26U, C27U, U29A, A30G, C31U
DNA 1: CAATCTGAATTCCGGTCTCCC
DNA 2: TGGTGGCTACGACGGGATT
B5: UCGAGUU (DNA:RNA)
RNA: B1 RNA with G25U, A26C, U28A, G30U, A31U
DNA 1: CAATCTGAATTCCGGTCTCCC
DNA 2: TGGTGGCTACGACGGGATT
B6: UGGAUUC (DNA:RNA)
RNA: B2 RNA with C25U, C27G, C28A, A30U
DNA 1: CAATCTGAATTCCGGTCTCCC
DNA 2: TGGTGGCTACGACGGGATT
B7: GGCUCGC (DNA:RNA)
RNA: B2 RNA with C25G, C28U, U29C, A30G
DNA 1: CAATCTGAATTCCGGTCTCCC
DNA 2: TGGTGGCTACGACGGGATT
B8: CGAUACG (DNA:RNA)
RNA: B2 RNA with C27A, C28U, U29A, A30C, C31G
DNA 1: CAATCTGAATTCCGGTCTCCC
DNA 2: TGGTGGCTACGACGGGATT
B9: GUCGUGC (DNA:RNA)
RNA: B2 RNA with C25G, G26U, C28G, A30G
DNA 1: CAATCTGAATTCCGGTCTCCC
DNA 2: TGGTGGCTACGACGGGATT
B10: UUGGUAA (DNA:RNA)
RNA: B2 RNA with C25U, G26U, C27G, C28G, C31A
DNA 1: CAATCTGAATTCCGGTCTCCC
DNA 2: TGGTGGCTACGACGGGATT
B11: AAGUAAU (DNA:RNA)
RNA: B1 RNA with G25A, G29A, G30A, A31U
DNA 1: CAATCTGAATTCCGGTCTCCC
DNA 2: TGGTGGCTACGACGGGATT
B12: CCUGUAU (DNA:RNA)
RNA: B2 RNA with G26C, C27U, C28G, C31U
DNA 1: CAATCTGAATTCCGGTCTCCC
DNA 2: TGGTGGCTACGACGGGATT
B13: CUCACAU (DNA:RNA)
RNA: B2 RNA with G26U, C28A, U29C, C31U
DNA 1: CAATCTGAATTCCGGTCTCCC
DNA 2: TGGTGGCTACGACGGGATT
B14: AUCAGGG (DNA:RNA)
RNA: B1 RNA with G25A, A26U, G27C, U28A, A31G
DNA 1: CAATCTGAATTCCGGTCTCCC
DNA 2: TGGTGGCTACGACGGGATT
B15: UCCCAGA (DNA:RNA)
RNA: B2 RNA with C25U, G26C, U29A, A30G, C31A
DNA 1: CAATCTGAATTCCGGTCTCCC
DNA 2: TGGTGGCTACGACGGGATT
B16: UGCGCAA (DNA:RNA)
RNA: B2 RNA with C25U, C28G, U29C, C31A
DNA 1: CAATCTGAATTCCGGTCTCCC
DNA 2: TGGTGGCTACGACGGGATT
B17: UCUUCGA (DNA:RNA)
RNA: B1 RNA with G25U, A26C, G27U, G29C
DNA 1: CAATCTGAATTCCGGTCTCCC
DNA 2: TGGTGGCTACGACGGGATT
B18: CUAGGGG (DNA:RNA)
RNA: B1 RNA with G25C, A26U, G27A, U28G, A31G
DNA 1: CAATCTGAATTCCGGTCTCCC
DNA 2: TGGTGGCTACGACGGGATT
B19: UUACCUU (DNA:RNA)
RNA: B2 RNA with C25U, G26U, C27A, U29C, A30U, C31U
DNA 1: CAATCTGAATTCCGGTCTCCC
DNA 2: TGGTGGCTACGACGGGATT
B20: UCAGGGG (DNA:RNA)
RNA: B1 RNA with G25U, A26C, G27A, U28G, A31G
DNA 1: CAATCTGAATTCCGGTCTCCC
DNA 2: TGGTGGCTACGACGGGATT
B21: CCAGUUC (DNA:RNA)
RNA: B2 RNA with G26C, C27A, C28G, A30U
DNA 1: CAATCTGAATTCCGGTCTCCC
DNA 2: TGGTGGCTACGACGGGATT
B22: AACCAUU (DNA:RNA)
RNA: B2 RNA with C25A, G26A, U29A, A30U, C31U
DNA 1: CAATCTGAATTCCGGTCTCCC
DNA 2: TGGTGGCTACGACGGGATT
B23: CGACCAU (DNA:RNA)
RNA: B2 RNA with C27A, U29C, C31U
DNA 1: CAATCTGAATTCCGGTCTCCC
DNA 2: TGGTGGCTACGACGGGATT
B24: CGUACUU (DNA:RNA)
RNA: B2 RNA with C27U, C28A, U29C, A30U, C31U
DNA 1: CAATCTGAATTCCGGTCTCCC
DNA 2: TGGTGGCTACGACGGGATT
B25: AUUUGGA (DNA:RNA)
RNA: B1 RNA with G25A, A26U, G27U
DNA 1: CAATCTGAATTCCGGTCTCCC
DNA 2: TGGTGGCTACGACGGGATT
B26: UGUCAUA (DNA:RNA)
RNA: B2 RNA with C25U, C27U, U29A, A30U, C31A
DNA 1: CAATCTGAATTCCGGTCTCCC
DNA 2: TGGTGGCTACGACGGGATT
B27: CAUUGAC (DNA:RNA)
RNA: B2 RNA with G26A, C27U, C28U, U29G
DNA 1: CAATCTGAATTCCGGTCTCCC
DNA 2: TGGTGGCTACGACGGGATT
B28: UAGUCAU (DNA:RNA)
RNA: B1 RNA with G25U, G29C, G30A, A31U
DNA 1: CAATCTGAATTCCGGTCTCCC
DNA 2: TGGTGGCTACGACGGGATT
B29: GAGACCC (DNA:RNA)
RNA: B1 RNA with U28A, G29C, G30C, A31C
DNA 1: CAATCTGAATTCCGGTCTCCC
DNA 2: TGGTGGCTACGACGGGATT
B30: UAUUGGU (DNA:RNA)
RNA: B1 RNA with G25U, G27U, A31U
DNA 1: CAATCTGAATTCCGGTCTCCC
DNA 2: TGGTGGCTACGACGGGATT
B31: UGUGGUC (DNA:RNA)
RNA: B2 RNA with C25U, C27U, C28G, U29G, A30U
DNA 1: CAATCTGAATTCCGGTCTCCC
DNA 2: TGGTGGCTACGACGGGATT

For this test, the target named is T1, RBFOX1 RRM RbFoxmut (Fox-RRM*). Put plainly: EMSA; HiTS-Eq, 1 nM pool, 10 min; buffer printed only for the single-RNA assays: 10 mM Tris pH 7.5, 150 mM NaCl, 3.4 mM EDTA, 0.001% NP-40, 30 C. As to conditions: tags: His6 N-terminal (pET28a); label: 5' 32P. The procedure, abridged:
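Purified RbFox RRM (wild type or mutant) was equilibrated for 10 min in 50 µL with 1 nM of a 5′-radiolabelled pool of RNA with 7 randomized nucleotides, its flanks annealed to DNA oligonucleotides, across increasing protein concentrations. Free RNA was separated by 8% native PAGE, excised, reverse-transcribed, PCR-barcoded and sequenced on an Illumina HiSeq 2500. Relative association constants came from read-count changes of each variant against the control reaction, normalised to the cognate motif.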
(In general: A gel shift assay detects complexes by their altered migration in electrophoresis.)
For the molecule B1, the binding signal was 0.0842 KA relative to UGCAUGU.
The same measure for B2: 0.0879 KA relative to UGCAUGU; for B3: 0.106 KA relative to UGCAUGU.
For B4 the value was 0.0988 KA relative to UGCAUGU; for B5, 0.0944 KA relative to UGCAUGU.
For B6 the value was 0.139 KA relative to UGCAUGU; for B7, 0.113 KA relative to UGCAUGU; for B8, 0.103 KA relative to UGCAUGU.
Take B9: the binding signal was 0.167 KA relative to UGCAUGU.
For B10 the value was 0.156 KA relative to UGCAUGU; for B11, 0.0969 KA relative to UGCAUGU; for B12, 0.135 KA relative to UGCAUGU.
As for B13, the binding signal is 0.0911 KA relative to UGCAUGU.
Consider B14, for which the binding signal was 0.1 KA relative to UGCAUGU.
For B15 the value was 0.0555 KA relative to UGCAUGU; for B16, 0.0645 KA relative to UGCAUGU.
The same measure for B17: 0.0689 KA relative to UGCAUGU.
Turning to B18, the binding signal is 0.0578 KA relative to UGCAUGU.
As to B19, the binding signal was 0.081 KA relative to UGCAUGU.
The same measure for B20: 0.0557 KA relative to UGCAUGU; for B21: 0.073 KA relative to UGCAUGU; for B22: 0.0835 KA relative to UGCAUGU.
The same measure for B23: 0.0581 KA relative to UGCAUGU.
For B24 the value was 0.0698 KA relative to UGCAUGU; for B25, 0.0603 KA relative to UGCAUGU; for B26, 0.119 KA relative to UGCAUGU.
For the molecule B27, the binding signal is 0.124 KA relative to UGCAUGU.
As to B28, the binding signal is 0.106 KA relative to UGCAUGU.
Consider B29, for which the binding signal was 0.0526 KA relative to UGCAUGU.
For B30 the value was 0.125 KA relative to UGCAUGU; for B31, 0.184 KA relative to UGCAUGU.

The values are drawn from paper PMC9911399, “Two distinct binding modes provide the RNA-binding protein RbFox with extraordinary sequence specificity”.
